PubChem BioAssay (NCI)
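TGI denotes the concentration required for complete inhibition of growth.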 Certain results were filed several times, with different values. The other results are left out here. An entry can have further records. For part of these data: Records of one sample usually come from different ranges of test concentrations, not given here; some values may only mark the edge of a range. A tag in brackets gives the origin of a value. Letters hold for one entry only. For part of these data: The records of an entry are repeats (runs, samples, wells, individuals or studies).

Key:
Test in all cases: growth of human tumour cells (NCI), 384-well format
SF-295 CNS = test system: SF-295 CNS
HOP-92 NSCLC = test system: HOP-92 NSCLC
ACHN renal = test system: ACHN renal
MDA-MB-231 breast = test system: MDA-MB-231 breast
HL-60(TB) leukemia = test system: HL-60(TB) leukemia
NCI-H322M lung = test system: NCI-H322M lung
PC-3 prostate = test system: PC-3 prostate
SF-539 CNS = test system: SF-539 CNS
U251 glioblastoma = test system: U251 glioblastoma
SNB-19 CNS = test system: SNB-19 CNS
T-47D breast = test system: T-47D breast

SMILES	TGI (SF-295 CNS)	TGI (HOP-92 NSCLC)	TGI (ACHN renal)	TGI (MDA-MB-231 breast)	TGI (HL-60(TB) leukemia)	TGI (NCI-H322M lung)	TGI (PC-3 prostate)	TGI (SF-539 CNS)	TGI (U251 glioblastoma)	TGI (SNB-19 CNS)	TGI (T-47D breast)
COc1c(OCCCN2CCOCC2)ccc2c3n(c(=NC(=O)c4cnc(N)nc4)nc12)CCN3	> 50 µM [sample A, 1 test] and 666 nM [sample B, mean of 2 tests]	> 50 µM [sample A, 1 test] and 506 nM [sample B, 1 test]	448 nM [sample A, 1 test] and > 100 µM [sample B, mean of 2 tests]	> 50 µM [sample A, 1 test] and 1.76 µM [sample B, 1 test]	15.8 nM [sample A, 1 test] and 244 nM [sample B, mean of 2 tests]	> 50 µM [sample A, 1 test] and 1.47 µM [sample B, mean of 2 tests]	19.5 µM [sample A, 1 test] and 1.17 µM [sample B, 1 test]	> 50 µM [sample A, 1 test] and 3.28 µM [sample B, mean of 2 tests]	–	–	–
COc1cccc2c1C(=O)c1c(O)c3c(c(O)c1C2=O)C[C@@](O)(C(=O)CO)C[C@@H]3OC1CC(N)C(O)C(C)O1 (some centres not stated)	–	548 nM [sample A, mean of 4 tests] and 191 nM [sample A, mean of 61 tests] and 10.2 µM [sample B, 1 test]	–	–	–	–	–	–	155 nM [sample A, mean of 4 tests] and 78.5 nM [sample A, mean of 56 tests] and 1.27 µM [sample B, 1 test]	453 nM [sample A, mean of 4 tests] and 308 nM [sample A, mean of 42 tests] and 13.8 µM [sample B, 1 test]	271 nM [sample A, mean of 3 tests] and 272 nM [sample A, mean of 54 tests] and 12.6 µM [sample B, 1 test]
